# Laboratory results: the supplement of paper PMC8728848
# This is one part of the list.
# B1: GSL-I (Griffonia simplicifolia) (protein)
# chain: FNLPNFWSDVKDNIIFQGDANTTAGTLQLCKTNQYGNPLQYRAGRALYSDPVQLWDNKTGSVASFYTEFTFFLKITGDGPADGLAFFLAPPDSDVKDAGAYLGLFNKSTATQPSKNQVVAVEFDTWKNTDFPEPSYRHIGINVNSIVSVATKRWEDSDIFSGKIATARISYDGSAKILTVVLSYPDGADYILSHSVDLSKNLPNPIRVGISASTGANQFLTVYVLSWRFSSALQSTSVNAAMGPEIIRTVV
# Tests used:
# Assay in all cases: glycan array binding signal (z-score within array); higher = stronger binding
# Details in all cases: glycan notation: IUPAC condensed, linker removed
# [1] = target: Gal(b1-4)GlcNAc(b1-3)Gal(b1-4)GlcNAc
# In short: (§1)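 Glycan array data were curated from 3228 arrays in the Consortium for Functional Glycomics database and kept only where the protein sequence was available. Glycan names were converted to IUPAC-condensed notation, and columns mapping to the same glycan were averaged. The binding signal is a within-array Z-score, averaged across arrays of the same protein sequence at different concentrations or buffers and across linkers. Negative Z-scores can be read as non-binding.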
# [2] = target: Gal(b1-4)GlcNAc(b1-3)Gal(b1-4)GlcNAc(b1-2)Man(a1-3)[Gal(b1-4)GlcNAc(b1-3)Gal(b1-4)GlcNAc(b1-2)Man(a1-6)]Man(b1-4)GlcNAc(b1-4)GlcNAc
# In short: as §1
# [3] = target: Gal(b1-4)GlcNAc(b1-3)Gal(b1-4)GlcNAc(b1-2)Man(a1-3)[Gal(b1-4)GlcNAc(b1-3)Gal(b1-4)GlcNAc(b1-2)Man(a1-6)]Man(b1-4)GlcNAc(b1-4)[Fuc(a1-6)]GlcNAc
# In short: as §1
# [4] = target: Gal(b1-4)GlcNAc(b1-3)Gal(b1-4)GlcNAc(b1-2)[Gal(b1-4)GlcNAc(b1-3)Gal(b1-4)GlcNAc(b1-6)]Man(a1-6)[Gal(b1-4)GlcNAc(b1-3)Gal(b1-4)GlcNAc(b1-2)Man(a1-3)]Man(b1-4)GlcNAc(b1-4)GlcNAc
# In short: as §1
# [5] = target: Gal(b1-4)GlcNAc(b1-3)Gal(b1-4)GlcNAc(b1-2)[Gal(b1-4)GlcNAc(b1-3)Gal(b1-4)GlcNAc(b1-6)]Man(a1-6)[Gal(b1-4)GlcNAc(b1-3)Gal(b1-4)GlcNAc(b1-2)Man(a1-3)]Man(b1-4)GlcNAc(b1-4)[Fuc(a1-6)]GlcNAc
# In short: as §1
# [6] = target: Gal(b1-4)GlcNAc(b1-3)Gal(b1-4)GlcNAc(b1-3)Gal(b1-4)GlcNAc
# In short: as §1
# [7] = target: Gal(b1-4)GlcNAc(b1-3)Gal(b1-4)GlcNAc(b1-3)Gal(b1-4)GlcNAc(b1-2)Man(a1-3)[Gal(b1-4)GlcNAc(b1-3)Gal(b1-4)GlcNAc(b1-3)Gal(b1-4)GlcNAc(b1-2)Man(a1-6)]Man(b1-4)GlcNAc(b1-4)GlcNAc
# In short: as §1
# [8] = target: Gal(b1-4)GlcNAc(b1-3)Gal(b1-4)GlcNAc(b1-3)Gal(b1-4)GlcNAc(b1-2)Man(a1-3)[Gal(b1-4)GlcNAc(b1-3)Gal(b1-4)GlcNAc(b1-3)Gal(b1-4)GlcNAc(b1-2)Man(a1-6)]Man(b1-4)GlcNAc(b1-4)[Fuc(a1-6)]GlcNAc
# In short: as §1
# [9] = target: Gal(b1-4)GlcNAc(b1-3)Gal(b1-4)GlcNAc(b1-3)Gal(b1-4)GlcNAc(b1-2)[Gal(b1-4)GlcNAc(b1-3)Gal(b1-4)GlcNAc(b1-3)Gal(b1-4)GlcNAc(b1-6)]Man(a1-6)[Gal(b1-4)GlcNAc(b1-3)Gal(b1-4)GlcNAc(b1-3)Gal(b1-4)GlcNAc(b1-2)Man(a1-3)]Man(b1-4)GlcNAc(b1-4)[Fuc(a1-6)]GlcNAc
# In short: as §1
# [10] = target: Gal(b1-4)GlcNAc(b1-3)Gal(b1-4)GlcNAc(b1-3)Gal(b1-4)GlcNAc(b1-3)Gal(b1-4)GlcNAc(b1-2)Man(a1-3)[Gal(b1-4)GlcNAc(b1-3)Gal(b1-4)GlcNAc(b1-3)Gal(b1-4)GlcNAc(b1-3)Gal(b1-4)GlcNAc(b1-2)Man(a1-6)]Man(b1-4)GlcNAc(b1-4)GlcNAc
# In short: as §1
# [11] = target: Gal(b1-4)GlcNAc(b1-3)Gal(b1-4)GlcNAc(b1-3)Gal(b1-4)GlcNAc(b1-3)Gal(b1-4)GlcNAc(b1-2)Man(a1-3)[Gal(b1-4)GlcNAc(b1-3)Gal(b1-4)GlcNAc(b1-3)Gal(b1-4)GlcNAc(b1-3)Gal(b1-4)GlcNAc(b1-2)Man(a1-6)]Man(b1-4)GlcNAc(b1-4)[Fuc(a1-6)]GlcNAc
# In short: as §1
# [12] = target: Gal(b1-4)GlcNAc(b1-3)Gal(b1-4)GlcNAc(b1-3)Gal(b1-4)GlcNAc(b1-3)Gal(b1-4)GlcNAc(b1-2)[Gal(b1-4)GlcNAc(b1-3)Gal(b1-4)GlcNAc(b1-3)Gal(b1-4)GlcNAc(b1-3)Gal(b1-4)GlcNAc(b1-6)]Man(a1-6)[Gal(b1-4)GlcNAc(b1-3)Gal(b1-4)GlcNAc(b1-3)Gal(b1-4)GlcNAc(b1-3)Gal(b1-4)GlcNAc(b1-2)Man(a1-3)]Man(b1-4)GlcNAc(b1-4)[Fuc(a1-6)]GlcNAc
# In short: as §1
# [13] = target: Gal(b1-4)GlcNAc(b1-3)Gal(b1-4)GlcNAc(b1-3)Gal(b1-4)GlcNAc(b1-3)Gal(b1-4)GlcNAc(b1-3)Gal(b1-4)GlcNAc(b1-2)Man(a1-3)[Gal(b1-4)GlcNAc(b1-3)Gal(b1-4)GlcNAc(b1-3)Gal(b1-4)GlcNAc(b1-3)Gal(b1-4)GlcNAc(b1-3)Gal(b1-4)GlcNAc(b1-2)Man(a1-6)]Man(b1-4)GlcNAc(b1-4)GlcNAc
# In short: as §1
# [14] = target: Gal(b1-4)GlcNAc(b1-3)Gal(b1-4)GlcNAc(b1-3)Gal(b1-4)GlcNAc(b1-3)Gal(b1-4)GlcNAc(b1-3)Gal(b1-4)GlcNAc(b1-2)Man(a1-3)[Gal(b1-4)GlcNAc(b1-3)Gal(b1-4)GlcNAc(b1-3)Gal(b1-4)GlcNAc(b1-3)Gal(b1-4)GlcNAc(b1-3)Gal(b1-4)GlcNAc(b1-2)Man(a1-6)]Man(b1-4)GlcNAc(b1-4)[Fuc(a1-6)]GlcNAc
# In short: as §1
# [15] = target: Gal(b1-4)GlcNAc(b1-3)Gal(b1-4)GlcNAc(b1-3)Gal(b1-4)GlcNAc(b1-3)Gal(b1-4)GlcNAc(b1-3)Gal(b1-4)GlcNAc(b1-2)[Gal(b1-4)GlcNAc(b1-3)Gal(b1-4)GlcNAc(b1-3)Gal(b1-4)GlcNAc(b1-3)Gal(b1-4)GlcNAc(b1-3)Gal(b1-4)GlcNAc(b1-6)]Man(a1-6)[Gal(b1-4)GlcNAc(b1-3)Gal(b1-4)GlcNAc(b1-3)Gal(b1-4)GlcNAc(b1-3)Gal(b1-4)GlcNAc(b1-3)Gal(b1-4)GlcNAc(b1-2)Man(a1-3)]Man(b1-4)GlcNAc(b1-4)[Fuc(a1-6)]GlcNAc
# In short: as §1
# [16] = target: Gal(b1-4)GlcNAc(b1-3)Gal(b1-4)GlcNAc(b1-3)Gal(b1-4)GlcNAc(b1-3)Gal(b1-4)GlcNAc(b1-3)Gal(b1-4)GlcNAc(b1-3)Gal(b1-4)GlcNAc(b1-2)Man(a1-3)[Gal(b1-4)GlcNAc(b1-3)Gal(b1-4)GlcNAc(b1-3)Gal(b1-4)GlcNAc(b1-3)Gal(b1-4)GlcNAc(b1-3)Gal(b1-4)GlcNAc(b1-3)Gal(b1-4)GlcNAc(b1-2)Man(a1-6)]Man(b1-4)GlcNAc(b1-4)GlcNAc
# In short: as §1
# [17] = target: Gal(b1-4)GlcNAc(b1-3)Gal(b1-4)GlcNAc(b1-3)GalNAc
# In short: as §1
# [18] = target: Gal(b1-4)GlcNAc(b1-3)Gal(b1-4)GlcNAc(b1-3)[Gal(b1-4)GlcNAc(b1-3)Gal(b1-4)GlcNAc(b1-6)]GalNAc
# In short: as §1
# [19] = target: Gal(b1-4)GlcNAc(b1-3)Gal(b1-4)GlcNAc(b1-6)[Gal(b1-3)]GalNAc
# In short: as §1
binder,measurement,setting,value
B1,glycan array binding signal (z-score),[1],-0.198
same,glycan array binding signal (z-score),[2],0.662
same,glycan array binding signal (z-score),[3],0.153
same,glycan array binding signal (z-score),[4],-0.091
same,glycan array binding signal (z-score),[5],-0.021
same,glycan array binding signal (z-score),[6],-0.25
same,glycan array binding signal (z-score),[7],0.929
same,glycan array binding signal (z-score),[8],-0.136
same,glycan array binding signal (z-score),[9],-0.162
same,glycan array binding signal (z-score),[10],-0.171
same,glycan array binding signal (z-score),[11],0.038
same,glycan array binding signal (z-score),[12],-0.244
same,glycan array binding signal (z-score),[13],-0.259
same,glycan array binding signal (z-score),[14],-0.044
same,glycan array binding signal (z-score),[15],0.4
same,glycan array binding signal (z-score),[16],0.02
same,glycan array binding signal (z-score),[17],0.65
same,glycan array binding signal (z-score),[18],0.781
same,glycan array binding signal (z-score),[19],0.727
